Source: PubChem BioAssay (NCI)
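Interpolation was linear, between the two tested concentrations surrounding the appropriate level; five concentrations were tested over 48 hours in 96-well plates. Here, GI50 denotes the concentration required for 50% inhibition of growth. TGI: concentration producing complete growth inhibition.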

Tested on: NCI-H322M lung
Assay: NCI-60 cell line screen, 48 h

| SMILES | GI50 [nM] | TGI [nM] |
| --- | --- | --- |
| CNC(=O)c1cc(Oc2ccc3c(c2)sc2nc(-c4ccc(N(C)C)cc4)cn23)ccn1 | 1230 | > 50000 |
| CCC(=O)Nc1cc(Nc2cc(NC3CC3)n3ncc(C#N)c3n2)ccc1C | 1630 | 22500 |
